The record followed here is paper PMC4336329 (PLoS ONE, 2015).

Among all 310,000 compounds or so, about 14,000 (4.5%) showed an effect of 50% or more. The effect is printed as a negative number. This is one part of the list.
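Further: peak tail current of the secondary pulse compared with the same well before compound.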

Sequence of human ether-à-go-go-related gene (hERG) potassium channel (Q12809 whole entry, looked up): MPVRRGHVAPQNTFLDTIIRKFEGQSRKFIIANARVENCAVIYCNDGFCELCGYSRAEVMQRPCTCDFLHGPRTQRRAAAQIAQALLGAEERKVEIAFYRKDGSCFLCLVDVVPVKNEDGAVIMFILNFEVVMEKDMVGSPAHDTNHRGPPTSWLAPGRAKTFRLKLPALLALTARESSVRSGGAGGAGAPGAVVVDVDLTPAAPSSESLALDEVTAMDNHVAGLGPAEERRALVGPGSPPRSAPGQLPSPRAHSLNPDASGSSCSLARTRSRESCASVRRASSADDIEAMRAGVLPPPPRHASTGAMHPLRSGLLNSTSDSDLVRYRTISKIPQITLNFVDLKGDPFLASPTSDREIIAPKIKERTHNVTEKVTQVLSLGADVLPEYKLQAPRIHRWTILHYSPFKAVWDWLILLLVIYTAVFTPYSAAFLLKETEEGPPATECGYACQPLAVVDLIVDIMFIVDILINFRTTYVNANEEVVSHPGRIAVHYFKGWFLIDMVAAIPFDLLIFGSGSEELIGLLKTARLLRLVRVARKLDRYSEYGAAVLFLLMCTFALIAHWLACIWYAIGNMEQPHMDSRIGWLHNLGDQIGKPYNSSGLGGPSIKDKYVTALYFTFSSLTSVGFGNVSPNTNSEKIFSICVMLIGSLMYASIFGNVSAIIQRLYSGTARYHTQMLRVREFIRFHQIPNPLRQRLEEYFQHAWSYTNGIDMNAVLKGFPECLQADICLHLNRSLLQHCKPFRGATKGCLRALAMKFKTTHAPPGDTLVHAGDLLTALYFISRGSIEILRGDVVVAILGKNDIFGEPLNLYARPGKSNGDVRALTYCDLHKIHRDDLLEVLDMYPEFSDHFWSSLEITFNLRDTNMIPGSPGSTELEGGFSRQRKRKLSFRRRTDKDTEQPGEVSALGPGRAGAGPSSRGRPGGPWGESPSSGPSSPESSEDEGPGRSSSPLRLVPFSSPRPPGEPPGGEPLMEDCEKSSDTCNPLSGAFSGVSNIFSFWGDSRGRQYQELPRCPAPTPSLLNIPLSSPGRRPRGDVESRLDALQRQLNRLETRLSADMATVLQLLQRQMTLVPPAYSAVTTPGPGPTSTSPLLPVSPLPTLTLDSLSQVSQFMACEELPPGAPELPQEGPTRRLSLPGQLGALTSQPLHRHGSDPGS

The assay concerns the target human ether-à-go-go-related gene (hERG) potassium channel (human, UniProt Q12809). Briefly: primary screen, population patch clamp on CHO cells stably expressing hERG.
Consider `NC(=O)c1cc([N+](=O)[O-])c(Cl)cc1NCc1cccnc1`, for which the “hERG current change (%, negative = inhibition) at 10uM” value is reported as -8.53%.

For the compound `CCOC(=O)N1CCN(CC(=O)Nc2ccc(F)cc2F)CC1`, the “hERG current change (%, negative = inhibition) at 10uM” value is reported as -28.6%. The result for `COc1ccc(NC(=O)CS(=O)c2cccc(C(F)(F)F)c2)cc1` (stereo not shown) reads 29.8%. As to `COc1ccc(CC(=O)Oc2ccc(C(C)C)cc2)cc1S(=O)(=O)N1CCOCC1`, the “hERG current change (%, negative = inhibition) at 10uM” value was 18.8%.

For `Cc1c(Br)cc(C(=O)N2CCCCCC2)c(C)c1C`, the “hERG current change (%, negative = inhibition) at 10uM” value was -38.2%. The same measure for `CCCCCCCN=CC1=C(O)CC(c2ccccc2)CC1=O` (stereo not shown): -6.52%; for `C[C@H](NC(=O)OC(C)(C)C)C(=O)NCC1CCC(C(=O)O)CC1` (stereo partly shown): -4.8%. The result for `O=C(/C=C/c1ccccc1)Nc1nnc(SCC(=O)c2ccc3ccccc3c2)s1` reads 4.75%. Consider `Cc1ccc(C2CC2c2n[nH]c(=S)n2-c2ccc(Cl)cc2)cc1` (stereo not shown), for which the “hERG current change (%, negative = inhibition) at 10uM” value is 5.54%.

Take `Cc1nc2sc3c(c2c(=O)n1/N=C/c1ccco1)CCCC3`: the “hERG current change (%, negative = inhibition) at 10uM” value was found to be 16.8%. The result for `O=C(CC1CCS(=O)(=O)C1)Nc1ccc[nH]c1=O` (stereo not shown) reads 2.85%; that for `COc1cc(/C=N/NC(=O)c2cc3c(ccc4ccccc43)o2)cc(OC)c1O`, 17.3%. For the compound `COc1cc(NC(=O)CSc2nc3ccccc3n2-c2ccccc2)c(C)cc1[N+](=O)[O-]`, the “hERG current change (%, negative = inhibition) at 10uM” value is reported as 5.58%. On to `CC(Sc1nncs1)C(=O)Nc1ccc2c(c1)OCO2` (stereo not shown), for which the “hERG current change (%, negative = inhibition) at 10uM” value was 17.4%. The same measure for `N#CCNC(=O)c1cccn1-c1ncc(C(F)(F)F)cc1Cl`: 5.01%. The result for `O=C1C(Cc2ccc(O)cc2)NC(=S)N1Cc1ccccc1` (stereo not shown) reads -7.58%; that for `Cc1ccc(-c2noc(-c3ccccc3C(=O)N3CCOCC3)n2)cc1`, -12.2%. The result for `O=C(Nc1ccccc1F)c1ccccc1-c1ccccc1` reads -11.7%; that for `CCC(C(=O)Nc1ccc2c(c1)OCCO2)n1c(=O)[nH]c2ccccc2c1=O` (stereo not shown), 16%. As for `C/C(=N\O)C1(C)N(O)C(C)(C)C(c2ccc(F)cc2)=[N+]1[O-]` (stereo not shown), the “hERG current change (%, negative = inhibition) at 10uM” value is listed as 10.3%. The result for `COc1ccc(Nc2nc(-c3cccnc3)nc3ccccc23)cn1` reads -1.74%. With `CCCN(CCC)CCNC(=O)C1c2ccccc2C(=O)N(CCOC)C1c1ccc(F)cc1` (stereo not shown), the “hERG current change (%, negative = inhibition) at 10uM” value is recorded as -4.45%.

For `CCOC(=O)C(=CNc1ccc(C(F)(F)F)cc1)C(=O)OCC`, the “hERG current change (%, negative = inhibition) at 10uM” value turned out to be 10.7%. For the compound `Cc1ccc(C(C)(C)NC(=O)C2CCC(=O)N(C3CCCCCC3)C2)cc1` (stereo not shown), the “hERG current change (%, negative = inhibition) at 10uM” value came to 16.6%. The result for `Cc1ncc(CO)c2c1Oc1nc(-c3ccccc3)nc(SCC(=O)N3CCCCC3)c1C2` reads 18.5%; that for `COc1ccc(NS(=O)(=O)c2cc(C(=O)Nc3ccccc3C(=O)O)ccc2C)cc1`, 13%. The same measure for `CC1(C)CC2CC(C)(CN2S(=O)(=O)c2ccc(F)cc2F)C1` (stereo not shown): -11.8%; for `C/C(=N\NC(=S)NCCc1ccccc1)c1ccc(O)cc1O`: 18.1%.

On to `COc1ccc2c(c1OC)C(=O)O[C@H]2[C@@H]1c2cc3c(cc2CCN1C)OCO3`, for which the “hERG current change (%, negative = inhibition) at 10uM” value was found to be 3.16%. The result for `S=C(NCCN(C1CCCCC1)C1CCCC1)Nc1cccc(Cl)c1` reads -71.3%; that for `COc1ccccc1C(=O)Nc1ccc2c(c1)nc1n2CCSC1`, -7.51%.

Consider `COc1ccc(N=C(N(C)C)P(=O)(N(C)C)N(C)C)cc1`, for which the “hERG current change (%, negative = inhibition) at 10uM” value is given as -2.08%. Regarding `Cc1ccc2oc(=O)c3cnn(CC(=O)N4CCCCC4C)c3c2c1` (stereo not shown), the “hERG current change (%, negative = inhibition) at 10uM” value is reported as -30.3%. The same measure for `COc1ccccc1NC(=O)CSc1nnc(Cc2ccccc2)o1`: -5.65%; for `CC(=O)c1ccc(NC(=O)CSc2nc3nc(C)cc(C)n3n2)cc1`: -3.94%; for `Cc1cc(/C=N/NC(=O)c2ccsc2)c(C)n1-c1cnccn1`: 20.1%.

For the compound `COC(=O)COc1cccc2c(=O)n(CC(=O)NCc3ccccc3)ccc12`, the “hERG current change (%, negative = inhibition) at 10uM” value was -6.25%. Turning to `CN(CCNC(=O)c1cc2c(=O)n(C)c3ccccc3c2n1C)Cc1ccccc1`, the “hERG current change (%, negative = inhibition) at 10uM” value was -17.8%. The same measure for `c1ccc(-c2nnc(N3CCOCC3)nc2-c2ccccc2)cc1`: -1.68%; for `O=C(NCC(=O)N(Cc1cccs1)C(C(=O)NC1CCCCC1)c1ccncc1)c1ccco1` (stereo not shown): -15%. The same measure for `COc1ccc(S(=O)(=O)NCC(=O)Nc2ccc3c(c2)OCCO3)cc1OC`: 4.55%; for `COC(=O)N1N=C(c2ccc(Br)cc2)CC1(O)C(F)(F)F` (stereo not shown): -1.71%. Take `COc1ccc(OC)c(NC(=O)Cn2cnc3c(cnn3-c3ccccc3)c2=O)c1`: the “hERG current change (%, negative = inhibition) at 10uM” value was -12.8%. The same measure for `O=C(Nc1ccccc1Oc1cccnc1)C1CCCN(C/C=C/c2ccccc2)C1` (stereo not shown): -76.9%; for `Cc1ccc(S(=O)(=O)/N=C2/NC(=O)/C(=C\c3cc(Br)cc(Br)c3O)S2)cc1`: 10%; for `COCC(=O)Nc1nc(-c2ccccc2)ns1`: -4.27%.

Turning to `O=c1cc(CSc2ccccc2)[nH]c2ccccc12`, the “hERG current change (%, negative = inhibition) at 10uM” value was found to be 8.17%. The result for `O=C(Cc1ccccc1)N1CCc2ccccc21` reads -9.57%; that for `COc1ccc(OC)c(NC(=O)c2ccc(CSc3ncccn3)cc2)c1`, 8.99%; that for `COc1ccc(OCC(=O)Nc2cc(-c3nn(C)c(=O)c4ccccc34)ccc2OC)cc1`, 7.36%.

Consider `O=C(NN1C(=O)C2C3C=CC(C3)[C@H]2C1=O)c1cccnc1` (stereo partly shown), for which the “hERG current change (%, negative = inhibition) at 10uM” value stood at 19.5%. The same measure for `COc1ccc(NC(=O)CN(C)C(=O)C2=NN(c3ccccc3)C(=O)CC2)cc1`: 7.07%. As to `Cc1nc(N)c(C#N)c(-c2cccnc2)c1-c1ccccc1`, the “hERG current change (%, negative = inhibition) at 10uM” value is 2.99%. The result for `COc1ccc(C2C(C(=O)c3ccc(C)o3)=C(O)C(=O)N2Cc2ccco2)cc1OC` (stereo not shown) reads 21%. The result for `COc1ccc(CNC(=O)c2cccc(NC(=O)c3ccccc3)c2)cc1` reads -71.5%; that for `OCCNCCCOc1cc(Cl)ccc1Cl`, -14.4%; that for `O=C1NC(Cc2ccccc2)c2nc3ccccc3c(=O)n2-c2cc(Cl)ccc21` (stereo not shown), 11.4%. The same measure for `O=C1CN(C(=O)COc2ccccc2Cl)c2ccccc2N1`: -13.8%; for `CC(NCc1ccc(Cl)c(Cl)c1)C(O)c1ccccc1.Cl` (stereo not shown): -0.311%. Regarding `COc1ccc(S(=O)(=O)Nc2cccc(C)c2C)c2cccnc12`, the “hERG current change (%, negative = inhibition) at 10uM” value is listed as -0.391%.

As for `Cc1cc(Cl)c(C(=O)Nc2cccc(C(F)(F)F)c2)c(C)n1.Cl`, the “hERG current change (%, negative = inhibition) at 10uM” value is given as -1.08%. The same measure for `O=C(c1ccc(F)cc1)C1CCN(Cc2cn[nH]c2-c2ccc(F)cc2)CC1`: -75.2%.

Turning to `CCOC(=O)c1cnn(-c2ccccc2)c1NC(=O)CN1CCCCC1`, the “hERG current change (%, negative = inhibition) at 10uM” value turned out to be 6.45%. The result for `Cc1ccc(F)cc1NC(=O)c1cccc2nccnc12` reads -9.21%; that for `O=C(NCC1CCCO1)c1ccc2ccccc2n1` (stereo not shown), -3.04%; that for `COc1ccccc1NC(=O)C1=C(C)Nc2nnnn2C1c1cccc(Br)c1` (stereo not shown), -11.5%. The same measure for `CCOC(=O)C1C(c2ccccc2)N(C)OC1(O)C(F)(F)F` (stereo not shown): 6.62%. `Cc1ccc(-c2csc(NC(=O)C[n+]3cc(-c4ccc(C)cc4)n4c3CCC4)n2)cc1.[Cl-]`: the “hERG current change (%, negative = inhibition) at 10uM” value is reported as -72.5%.

With `COc1cccc(N2C(=O)Nc3ccccc3C2(O)C(=O)NCc2ccc3c(c2)OCO3)c1` (stereo not shown), the “hERG current change (%, negative = inhibition) at 10uM” value is listed as -10%.

Regarding `O=C(Nc1ccc(-c2cn3ccccc3n2)cc1)c1ccco1`, the “hERG current change (%, negative = inhibition) at 10uM” value is given as -11.4%. As to `O=[N+]([O-])c1ccccc1/C=C/C=N/n1c(-c2ccccc2F)n[nH]c1=S`, the “hERG current change (%, negative = inhibition) at 10uM” value came out at 0.859%.

For `COc1ccc(NC(=O)CSc2n[nH]c(N)n2)cc1OC`, the “hERG current change (%, negative = inhibition) at 10uM” value turned out to be 16.1%. With `Cc1cccc(CN2CCC(CNC(=O)CSc3cc(=O)n(C)c4cc(Cl)ccc34)CC2)c1`, the “hERG current change (%, negative = inhibition) at 10uM” value was -69.7%. For the compound `COC(=O)N1C(=O)[C@](c2ccccc2)(C(C)C)N1C(=O)OC`, the “hERG current change (%, negative = inhibition) at 10uM” value turned out to be 12.2%. The same measure for `CN(CCCOc1ccccc1Br)Cc1ccccc1`: -22.1%.

In the case of `CC1CCCCN1CCNc1nc(=S)[nH]c2ccccc12` (stereo not shown), the “hERG current change (%, negative = inhibition) at 10uM” value was -67.5%. On to `CCC(=O)N(Cc1ccc2c(c1)OCO2)Cc1cc2cc(OC)ccc2[nH]c1=O`, for which the “hERG current change (%, negative = inhibition) at 10uM” value is -2.61%. The result for `Cc1ccc(N(C)C(=O)c2cc(S(=O)(=O)N3CCCC3)cn2C)cc1` reads -7.36%. The result for `Cc1ccc(-c2nc(N3CCOCC3)s[n+]2-c2ccccc2)cc1.[O-][Cl+3]([O-])([O-])[O-]` reads 9.31%. The result for `CN(C)CCCNc1ncnc2sc(-c3ccccc3)cc12.O=C(O)C(=O)O` reads -60.2%. In the case of `C=CCN1N=C(c2ccc(NC(=O)c3ccccc3)cc2)CSC1=O`, the “hERG current change (%, negative = inhibition) at 10uM” value turned out to be 17.5%. The result for `COc1ccc(OC)c(NC(=O)COC(=O)Cc2ccc(Br)cc2)c1` reads 29.5%; that for `Cc1cccc(C(=O)O/N=C(\N)c2cccc([N+](=O)[O-])c2)c1`, -11.4%. For `NC(=O)CN1CCN(Cc2ccc3c(c2)OCO3)CC1`, the “hERG current change (%, negative = inhibition) at 10uM” value turned out to be 30.6%. The same measure for `COC(=O)c1cc(NC(=O)C23CCC(C)(C(=O)O2)C3(C)C)cc(C(=O)OC)c1` (stereo not shown): -0.126%; for `CCc1[nH]c(=S)c(C#N)c(-c2ccccc2)c1C(=O)OC`: 25.5%; for `COCCn1c(SCC(=O)Nc2nnc(C)s2)nnc1-c1ccoc1C`: 46.2%. The same measure for `COc1ccc(Nc2nc(-c3cccs3)nc3ccccc23)c(OC)c1`: -2.84%.
